From the RNAGym collection of RNA variant scans (doi:10.1073/pnas.2313332121) come the findings set out here.

The chains are these.
B1: TPR 5TU (parent)
chain: GGAUCUUCUCGAUCUAACAAAAAAGACAAAUCUGCCACAAAGCUUGAGAGCAUCUUCGGAUGCAGAGGCGGCAGCCUUCGGUGGCGCGAUAGCGCCAACGUUCUCAACUAUGACACGCAAAACGCGUGCUCCGUUGAAUGGAGUUUAUCAUG

Variants at the floor of the assay are shown more often than the library holds them.

The variants in this series derive from B1. The series is described as follows: polymerase ribozyme fitness, log enrichment relative to wild type (log ratio); higher = more active; in vitro selection for triplet polymerase activity. In short, it runs like this: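 Mutant libraries of each subunit of a heterodimeric triplet polymerase ribozyme were built by PCR and transcribed. Each library went through one round of in vitro selection in triplicate: annealing with biotinylated primer, partner subunit and triplets, frozen incubation at −7 °C, gel excision of extended constructs, streptavidin-bead capture and RT-PCR. Input and output libraries were Illumina-sequenced; only genotypes with ≥10 input reads and ≥1 read per output were kept. Fitness is log2(genotype enrichment/wild-type enrichment), using inverse-variance-weighted replicate averages.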
Consider GGAUCUUCUCGAUCUAACAAAAAAGACAAAUCUGCCACAAAGCUUGACAGCAUCUUCGGAUGCAGAGGCGGCGGCCUUCGGUGGCCCGAUAGCGCCAACGUUCGCAACUAUGACACGCAAAACGCGUGCUCCGCUGAAUGGAGUUUAUCAUG [G48C A73G G86C U104G U134C], for which the “polymerase ribozyme fitness (log ratio)” value was no more than -4.2.

For the variant GGAUCUUCUCGAUCUAACAAAAAAGACAAAUCUGCCACAAAGCUUGAUAGCAUCUUCGGAUGCAGGGGCGGCAGCCUUCGGUGGCGCGAUAGCGCCAACGUUCUCAACUAUGACACGCAAAACGCGUGCUCCGUUGAAUGGAGUUUAUCAUG [G48U A66G], the “polymerase ribozyme fitness (log ratio)” value was no more than -4.2.

In the case of GGAUCUUCUCGAUCUAACAAAAAAGACAAAUCUGCCACAAAGCUUGAGCGCGUCAUCGGAUGCAGAGGCGGCAGCCUUCGGUGGCGCGAUAGCGCCAACGUUCUCAACUAUGACACGCAAAACGCGUGCUCCGUUGAAUGGAGUUUAUCAUG [A49C A52G U55A], the “polymerase ribozyme fitness (log ratio)” value was no more than -4.2.

Regarding GGAUCUUCUCGAUCUAACAAAAAAGACAAAUCUGCCACAAAGCUUGAAAGCAUCUUCGGAUGCAGAGGCGGCAGCCCUCGGGGGCGCGAUAGCGCCAACGUUCUCAACUAUGACACGCAAAACGCGUGCUCCGUUGAAGGGAGUUUAUCAUG [G48A U77C U82G U139G], the “polymerase ribozyme fitness (log ratio)” value is no more than -4.2.

GGAUCUUCUCGAUCUAACAAAAAAGACAAAUCUGCCACAAAGCUUGACCGCAUCUUCCGAUGCAGAGGCGGCAGCAUCCGGUGGCGAGAUAGCGCCAACGUUCUCAACUAUGACACGCAAAACGCGUGCUCCAUUGAAUGGAGUUUAUCAUG [G48C A49C G58C C76A U78C C87A G133A]: the “polymerase ribozyme fitness (log ratio)” value was no more than -4.2.

In the case of GGAUCUUCUCGAUCUAACAAAAAAGACAAAUCUGCCACAAAGCUUGACUGCAUCUUCGAAUGCAGAGGCGGCAGCCUUCGGUGGCGCGAAAGCGCAAACGUUCUAAACUAUGACACGCAAAACGCGUGCUCCGUUGAAUGGAGUUUAUCAUG [G48C A49U G59A U90A C96A C105A], the “polymerase ribozyme fitness (log ratio)” value was no more than -4.2.

With GGAUCUUCUCGAUCUAACAAAAAAGACAAAUCUGCCACAAAGCUUGAUAGCAAGUUCGGAUGCAGAGGCGACAGGCUUCGGUGGCACGAUAGCGUCAACGUUCUCAACUAUGACACGCCAAACGCGUGCUCCGUUGAAUGGAGUUUAUCAUG [G48U U53A C54G G71A C75G G86A C95U A119C], the “polymerase ribozyme fitness (log ratio)” value is no more than -4.2.

As for GGAUCUUCUCGAUCUAACAAAAAAGACAAAUCUGCCACAAAGCUUGAUAGCAUCUUCGGAUGCAGAGGCGGCAGCCUUCGGUGGCGGGAUAGCGCCGACGUUCUCAACUAUGACACGCAAAAUGCGUGCUCCGUCGAAUGGAGUUUAUCAUG [G48U C87G A97G C123U U135C], the “polymerase ribozyme fitness (log ratio)” value was no more than -4.2.

Consider GGAUCUUCUCGAUCUAACAAAAAAGACAAAUCUGCCACAAAGCUUGAUAGCAUCUUCGUAUGCAGAGGCCGCAGCCUUCGGUGGCGCGAUAGUGCCAACGUUCUCAACUAUGACACGCAAAACGCUUGCUCCGUUAAAUGGAGUUUAUCGUG [G48U G59U G70C C93U G126U G136A A150G], for which the “polymerase ribozyme fitness (log ratio)” value was no more than -4.2.

Regarding GGAUCUUCUCGAUCUAACAAAAAAGACAAAUCUGCCACAAAGCUUGAGCGCAUCUUCGGAUGCAGAGGCGGCUGCCUUCGGUGGCGCGAUAGCGCAAACGUUCUCAACUAUGACACGCAAAACGCGUGCUCCGUUGAAUGGAGUUUAUCAUG [A49C A73U C96A], the “polymerase ribozyme fitness (log ratio)” value was no more than -4.2.

Turning to GGAUCUUCUCGAUCUAACAAAAAAGACAAAUCUGCCACAAAGCUUGAUAGCAUCUUCGGAUGCAGAGGCGGCAGCCUUCGGUGGCGCGAUAACGCCAACGUUCGCAACUAUGACACGCAAAACGCGUUCUCCGUUGAAUGGAGUUUAUCAUG [G48U G92A U104G G128U], the “polymerase ribozyme fitness (log ratio)” value is no more than -4.2.

Take GGAUCUUCUCGAUCUAACAAAAAAGACAAAUCUGCCACAAAGCUUGACAGUUUCUUCGGAUGCAGAGGCGGCAGCCUUCGGUGGCGCGAUAGCGCCAACGUUCACAACUAUGACACGCAAAACGCGUGCUCCGUUGAAUGGAGUUUAUCAUG [G48C C51U A52U U104A]: the “polymerase ribozyme fitness (log ratio)” value was no more than -4.2.

With GGAUCUUCUCGAUCUAACAAAAAAGACAAAUCUGCCACAAAGCUUGAUAGCGUCUUCGGAUGCAGAGUCGGCAGCCUUCGGUGGCGCGAUAGCGCCAACGUUCUCAACUAUGACACGCAAAACGCGUGCUCCGUUGCAUGGUGUUUAUCAUG [G48U A52G G68U A137C A142U], the “polymerase ribozyme fitness (log ratio)” value is no more than -4.2.

As to GGAUCUUCUCGAUCUAACAAAAAAGACAAAUCUGCCACAAAGCUUGAUAGCUUCUUCGGAUGCAGAGGCGGCAGCCUUCGGUGUCGCGAUAGAGCCAACGUUCUCAUCUAUGACACGCAAAACUCGUGCUCCGUUGUAUGGGGUUAAUCAUG [G48U A52U G84U C93A A107U G124U A137U A142G U146A], the “polymerase ribozyme fitness (log ratio)” value is no more than -4.2.

Take GGAUCUUCUCGAUCUAACAAAAAAGACAAAUCUGCCACAAAGCUUGAGCGCAUCUUCGGAUGCGGAGGCGGCAGCCUUCGGUGGCGCGAUAGCGCCAACGUUCUCAACUAUGACACGCAAAACGCGUGCUCCGUUGAAGGGAGUUUAUCAUG [A49C A64G U139G]: the “polymerase ribozyme fitness (log ratio)” value was no more than -4.2.

On to GGAUCUUCUCGAUCUAACAAAAAAGACAAAUCUGCCACAAAGCUUGACAGCAACUUCGGAUGCAGAGGCGGACGCCUUCGGUAGCGCGAUAUCGCCAACGUUCUCAACUAUGACACGCAAAACGCGUGCUCCGUUGAAUUGAUUUUAUCAUG [G48C U53A C72A A73C G83A G92U G140U G143U], for which the “polymerase ribozyme fitness (log ratio)” value was no more than -4.2.

On to GGAUCUUCUCGAUCUAACAAAAAAGACAAAUCUGCCACAAAGCUUGACAGCAUCUUGAGAUGCCGAGGCGCCAGCCUUUGGUGGUGCGAUAGCGCCAACGUUCUCAACUAUGACACGCAAAACGCGUGCUCCGUUGAAUGGAGUUUAUCAUG [G48C C57G G58A A64C G71C C79U C85U], for which the “polymerase ribozyme fitness (log ratio)” value is no more than -4.2.

With GGAUCUUCUCGAUCUAACAAAAAAGACAAAUCUGCCACAAAGCUUGAGCGCAUCUUCGGAUGCCGAGGCGGCAGCCUUCGGUGUCGCGAUAGCGCCAACGUUCUCAUCUAUGACACGCAAAACGCGUGCUCCGUUGAAUGGAGUUUAUCAUG [A49C A64C G84U A107U], the “polymerase ribozyme fitness (log ratio)” value was no more than -4.2.

In the case of GGAUCUUCUCGAUCUAACAAAAAAGACAAAUCUGCCACAAAGCUUGACAGCAUCUUCGGAUGCAGAGGCGGCAGCCUUCGGUGGAGCGAUAGCGCCAACGUUCUCAACUAUGACACGCAAAACGCGUGCUCCGUCGAAUGGAGUUUAUCGUG [G48C C85A U135C A150G], the “polymerase ribozyme fitness (log ratio)” value is no more than -4.2.
